Source: the supplement of paper PMC10126150
Sequences with one replicate were seen in a single cluster, so their values are uncertain.

System: ATP
Experiment: switch fluorescence ratio, 500 uM ATP over buffer (Cy3 cluster intensity, sum of 5 cycles each) (fold (ratio)); higher = stronger signal-on switching upon ATP binding; sequences stand for … in TCGTCGGCAGCGTCAGATGTGTATAAGAGACAGTTTTTTTTTTTTTTTTTTTTTTTTT…TC
Conditions: aptamer strand: ATP DNA aptamer (quencher-CACCTGGGGGAGTATTGCGGAGGAAGG + anchor), 100 nM annealed; ATP concentration: 500 uM; one replicate
Outline: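 Between each of five buffer/ATP cycles, the flow-cell was stripped with NaOH and re-annealed. Each cycle imaged Cy3-labelled switching-strand clusters, annealed to 100 nM quencher-labelled ATP aptamer on a modified Illumina MiSeq flow-cell, first in selection buffer and then after 15 min with 500 uM ATP at 22 °C. The fluorescence ratio is summed target-cycle over summed buffer-cycle Cy3 intensity per cluster, averaged per switch-domain sequence, with clusters outside 100-1000 RFU excluded.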
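Further: ATP exposure 15 min at 22 °C before imaging.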

ACTCTTGGAG
switch fluorescence ratio: 1

TTAACAGACT
switch fluorescence ratio: 1.06

CAATTTAA
switch fluorescence ratio: 1.09

GCCACCTCGG
switch fluorescence ratio: 0.998

CTATGTGATC
switch fluorescence ratio: 1.11

CCAGTGGTGT
switch fluorescence ratio: 1.22

TTTGGAAAGA
switch fluorescence ratio: 1.01

ACGCGCATC
switch fluorescence ratio: 3.77

GGGGCGTGAC
switch fluorescence ratio: 0.983

AATTGAGGAG
switch fluorescence ratio: 0.948

GATCAGTGTA
switch fluorescence ratio: 1.01

GATTTTGAAA
switch fluorescence ratio: 0.987

AGTGTCCGTA
switch fluorescence ratio: 1

AGCGGCAAAC
switch fluorescence ratio: 3.22

TGGATAACCC
switch fluorescence ratio: 0.985

AGGTGGAAGA
switch fluorescence ratio: 1

CCTACTCCTC
switch fluorescence ratio: 0.973

GTTTTGTTT
switch fluorescence ratio: 0.981

AGCGACGCGT
switch fluorescence ratio: 0.982

ATTATCCTCA
switch fluorescence ratio: 1.01

TCGCATAAA
switch fluorescence ratio: 1.26

TAGATGCCT
switch fluorescence ratio: 0.994

GTTCCCTAGT
switch fluorescence ratio: 0.967

CTTCGCTTGA
switch fluorescence ratio: 1.07

ACCGAATCAA
switch fluorescence ratio: 1.31

CCAGGATCAC
switch fluorescence ratio: 1.09

ACCCGTAGTC
switch fluorescence ratio: 1.28

TTGAAATCAG
switch fluorescence ratio: 1.02

GCATGGCCAT
switch fluorescence ratio: 0.993

TTGAGAGGTC
switch fluorescence ratio: 0.933

ACTGTTTTTG
switch fluorescence ratio: 0.976

CTGGTACCAC
switch fluorescence ratio: 1.01

CTTTATGGA
switch fluorescence ratio: 0.981

AGGATGTA
switch fluorescence ratio: 0.972

TTCTGTCGCA
switch fluorescence ratio: 1.35

GATTCAGAC
switch fluorescence ratio: 1.03

GCTATTAATA
switch fluorescence ratio: 1.01

GCACCAGTG
switch fluorescence ratio: 1.4

CAAGGCATGA
switch fluorescence ratio: 1.05

CATATTCGAG
switch fluorescence ratio: 1.01

CGACAAGTGA
switch fluorescence ratio: 1.1

GTGAGGGGG
switch fluorescence ratio: 0.996

GGATGGAATA
switch fluorescence ratio: 0.985

TCGCGCGAAA
switch fluorescence ratio: 1.05

TTGTGTATAC
switch fluorescence ratio: 1.02

TTGATTAGAC
switch fluorescence ratio: 1.03

ACGATACCTG
switch fluorescence ratio: 1.55

TCGTTAAAGC
switch fluorescence ratio: 1.01

GTCTTATGCT
switch fluorescence ratio: 0.993

ATAACGCCT
switch fluorescence ratio: 1.03

ATGGCTTAAT
switch fluorescence ratio: 1.02

TGAAATAATG
switch fluorescence ratio: 0.989

CCGGGTGTAA
switch fluorescence ratio: 1.15

ACGGTAGTTT
switch fluorescence ratio: 0.981

GGTCATCCCC
switch fluorescence ratio: 1.04

TGGAAAGAGT
switch fluorescence ratio: 1.02

ATAAATTGAT
switch fluorescence ratio: 0.995

TCCCGTCGGG
switch fluorescence ratio: 1.05

TATTGGTGTC
switch fluorescence ratio: 1.01

GGTCCGGAGG
switch fluorescence ratio: 1

AAGTATGTTA
switch fluorescence ratio: 0.986

AGGAAAACGA
switch fluorescence ratio: 0.995

CAGGTGCAGT
switch fluorescence ratio: 1.46

ATGATATGCT
switch fluorescence ratio: 0.994

ACTATATAGA
switch fluorescence ratio: 1.01

TGGACTAGTA
switch fluorescence ratio: 0.982

AGTATAGTCT
switch fluorescence ratio: 0.908

TACAGATGCG
switch fluorescence ratio: 0.99

ACCCCCGACC
switch fluorescence ratio: 1.51

GGGTTGGGCA
switch fluorescence ratio: 1.01

AGTGGAGGAT
switch fluorescence ratio: 0.962

CTGTCCAGA
switch fluorescence ratio: 0.962

CTCCGGGGAG
switch fluorescence ratio: 1.17

CGACCGCGGC
switch fluorescence ratio: 1.71

TGTGCCACTT
switch fluorescence ratio: 1.01

TGCTTAATCG
switch fluorescence ratio: 0.981

TCTCCAACCC
switch fluorescence ratio: 1.14

TTAGTCCTCT
switch fluorescence ratio: 0.981

CCGGTTGCCG
switch fluorescence ratio: 0.963

GGTAGTCGCT
switch fluorescence ratio: 0.999

GGTACCATAA
switch fluorescence ratio: 0.982

CCAACTCTAG
switch fluorescence ratio: 1.04

GGTGGAACCC
switch fluorescence ratio: 0.961

GCAGTCGCAC
switch fluorescence ratio: 0.992

GTAAAAATGC
switch fluorescence ratio: 1.01

CTTTTTCGGC
switch fluorescence ratio: 1.01

ACAAGGTAAA
switch fluorescence ratio: 1

GCATAACTAT
switch fluorescence ratio: 1.07

ACTCCCCTCG
switch fluorescence ratio: 3.86

CTGCTATGAT
switch fluorescence ratio: 0.992

TTTGGCATCC
switch fluorescence ratio: 1.06

CTAATTCACG
switch fluorescence ratio: 1.07

CCGCACAAGT
switch fluorescence ratio: 3.48

CGCTGTACCC
switch fluorescence ratio: 2.26

TTTTCATATT
switch fluorescence ratio: 1.03

CATAATTAC
switch fluorescence ratio: 1.03

GCATATTGTC
switch fluorescence ratio: 0.979

TAATTGCGGA
switch fluorescence ratio: 1

ACACGTGTGG
switch fluorescence ratio: 1.05

CGCCTGAGT
switch fluorescence ratio: 1.04

GAGTTTTCAG
switch fluorescence ratio: 0.976

AGTTTGTATA
switch fluorescence ratio: 1.02

TGCCCTGG
switch fluorescence ratio: 1.04

AGGGGGATGC
switch fluorescence ratio: 0.992

AACGGGCGGT
switch fluorescence ratio: 1.02

GTCGGAGTGT
switch fluorescence ratio: 0.976

CCATTGGAAG
switch fluorescence ratio: 0.97

TTTCGCCGCG
switch fluorescence ratio: 1.25

TGGCTACGTA
switch fluorescence ratio: 0.963

GAGTTTCAAT
switch fluorescence ratio: 0.996

GCCTGAGAGT
switch fluorescence ratio: 0.962

CTAAGTAGTC
switch fluorescence ratio: 1.01

TGTCTTAACA
switch fluorescence ratio: 1

CGCATTGGCG
switch fluorescence ratio: 0.987

AATGGGTCTT
switch fluorescence ratio: 1.02

AGTCTTGTGG
switch fluorescence ratio: 0.991

ATGTAGGTAG
switch fluorescence ratio: 0.997

CCCGTTCGAA
switch fluorescence ratio: 1.01

TAGTATACGG
switch fluorescence ratio: 0.967

CTCCACCAGG
switch fluorescence ratio: 2.96

AGGATAGAAC
switch fluorescence ratio: 1

CCTGGTAGGT
switch fluorescence ratio: 0.993

TAGAATCGCC
switch fluorescence ratio: 1.03

GATTTGTGGC
switch fluorescence ratio: 1

TAATCGG
switch fluorescence ratio: 0.986

TCTGGCACGG
switch fluorescence ratio: 0.986

CATTTATCC
switch fluorescence ratio: 1.03

CAACCGGCT
switch fluorescence ratio: 1.06

AAATCGATTT
switch fluorescence ratio: 1.06

GACATGTGAA
switch fluorescence ratio: 1.04

ATCGTTTCAT
switch fluorescence ratio: 1.01

GAAATCCA
switch fluorescence ratio: 0.991

GCTAGAAACC
switch fluorescence ratio: 1.05

AATAGTTCGA
switch fluorescence ratio: 1.02

TTTCGACCCT
switch fluorescence ratio: 1.07

ATACGGTCCA
switch fluorescence ratio: 1.07

ATGTGTTCCT
switch fluorescence ratio: 1.03

TTATCTCGAT
switch fluorescence ratio: 0.997

TGGTTGAAGA
switch fluorescence ratio: 1.01

TAACTCGTTG
switch fluorescence ratio: 0.99

GACACGTGCA
switch fluorescence ratio: 0.979

CCCTGCGTAG
switch fluorescence ratio: 1.13

GTGAAGAATA
switch fluorescence ratio: 1.01

GGACAATGGA
switch fluorescence ratio: 1.04

AAAGATGTGG
switch fluorescence ratio: 0.94

GGCCCGGCTA
switch fluorescence ratio: 1.02

AATTTTCTTT
switch fluorescence ratio: 1.01

TTAAGAACTC
switch fluorescence ratio: 1.07

TGTGTCGGAG
switch fluorescence ratio: 0.974

TAATTTCATT
switch fluorescence ratio: 0.996

TGACGCGAAG
switch fluorescence ratio: 1.03

ACGTTATCGC
switch fluorescence ratio: 1.14

TCCCAGGAGG
switch fluorescence ratio: 1.38

TTTCTGAGAC
switch fluorescence ratio: 0.991

CACGATATGC
switch fluorescence ratio: 1.21

AATCTAGGAG
switch fluorescence ratio: 1.02

CACGGTTGGA
switch fluorescence ratio: 1.01

TGGTGGGAGA
switch fluorescence ratio: 0.982
